# Laboratory results reported in PubChem BioAssay AID652104 (National Center for Advancing Translational Sciences (NCATS), 2013).
# Screen size: about 410,000 compounds; about 7,200 (1.8%) were called active. This list was built around the results that the source calls inconclusive (neither active nor inactive); the mix of calls is not that of the screen. Calls follow the shape of the dose curve; as a rule, active = well fitted activation curve with a large enough effect; inconclusive = small, poorly fitted or top-dose-only effect, or another doubt; inactive = no such curve, though single readings can be large or run the other way. No potency is given beside an inconclusive call; the fits are too rough.
# Test: qHTS of TDP-43 Inhibitors; also: nearly all actives have a fitted effect of over 50% in size
# Conditions: TDP-43 expressing yeast growth rescue, BacTiter-Glo, 24 h; series mostly up to 46.1 µM
# Summary of the method: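 Yeast cells expressing TDP-43 under galactose induction are exposed to compounds for 24 hr at 30 deg C. BacTiter-Glo luminescence measures growth, so protective compounds score as activators.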
# Potency is read from the fitted curve at half-maximal effect; tags tell the direction and shape of the fitted curve.
row,SMILES,Potency
1,O=C(Nc1ccc2c(c1)OCCO2)NC12CC3CC(CC(C3)C1)C2,"inconclusive [activator, full curve, poor fit]"
2,CN(C)Cc1c(C(=O)N/N=C/c2ccc(OCc3c(F)cccc3Cl)cc2)nnn1-c1nonc1N,active: 11.2 µM
3,Cc1cccc(NC(=O)c2ccc3c(c2)C(=O)N(Cc2cccnc2)C3=O)c1C,"inconclusive [activator, full curve]"
4,Fc1ccc(CNc2nc3ccccc3n3nnnc23)cc1,"inconclusive [activator, full curve]"
5,CCCOc1ccc(C2=NNC(c3cccs3)=Nc3ccc(OC)cc32)cc1,inactive
6,COc1cccc(C(=O)NNC(=O)C(=O)Nc2cccc3ccccc23)c1,"inconclusive [activator, single point]"
7,CCN1C(=O)[C@H]2[C@H]3CN=C(SCc4ccc(C)cc4)N3[C@@](CC)(C(=O)OC)[C@H]2C1=O,"inconclusive [activator, partial curve]"
8,COc1ccc(Cn2ccc3nc(C)c(C(=O)Nc4ccc(OC)cc4)cc3c2=O)cc1,inactive
9,Cc1cccc(C(=O)OCc2cc(=O)n3ccsc3n2)c1,active: 17.8 µM
10,COc1ccc(NC(=O)C2Cc3c(-c4ccccc4Oc4ccccc4)ccnc3O2)cc1 (stereo not drawn),active: 25.1 µM
11,COc1cccc(NC(=O)Cn2cc3c(n2)CCCCC3)c1,"inconclusive [activator, partial curve]"
12,COc1ccc(C(=O)NC2CCCc3ccccc32)cc1 (stereo not drawn),"inconclusive [activator, single point]"
13,Cc1cccc(N2CCN(C(=O)/C=C/c3cccs3)CC2)c1C,"inconclusive [activator, partial curve]"
14,Cc1ccc2ccccc2c1NC(=O)c1ccco1,"inconclusive [activator, partial curve]"
15,CC(C)(C)OC(=O)NCC12C=CC(O1)C1C(=O)N(Cc3ccccc3)C(=O)C12 (stereo not drawn),"inconclusive [activator, single point]"
16,Cc1ccc(/C=C/C(=O)NCCc2cccc(Cl)c2)o1,"inconclusive [activator, partial curve]"
17,COc1ccc(-c2c(C#Cc3ccsc3)c3cc(-c4ccc(CN5CCOCC5)cc4)ccc3n2C)cc1,"inconclusive [activator, single point]"
18,COc1ccc(OC)c(NC(=O)c2nc(S(=O)(=O)Cc3ccc(F)cc3)ncc2Cl)c1,active: 3.16 µM
19,CC[C@@H]1CC=C[C@H]2[C@H]1C(=O)N(Cc1ccccc1)[C@H]2c1ccoc1,"inconclusive [activator, single point]"
20,COc1ccc(Cl)cc1Nc1nc(-c2cccnc2)cs1,"inconclusive [activator, partial curve]"
21,CC(C)C(Cl)=NOC(=O)Nc1ccc(F)cc1,active: 12.6 µM
22,Nc1ccc(SCCN2C(=O)c3ccccc3C2=O)cc1,"inconclusive [activator, single point]"
23,C=CCn1nc(C(=O)OCC)cc1-c1sc(NC(=O)c2ccccc2)nc1C,"inconclusive [activator, partial curve]"

row,SMILES,Potency
1,O=C(O)CSc1nnc(-c2ccccc2)c(-c2ccccc2)n1,"inconclusive [activator, single point]"
2,N/C(=N\OC(=O)c1cccc(Cn2cc(C(F)(F)F)ccc2=O)c1)c1ccccc1,"inconclusive [activator, partial curve]"
3,CC(C#N)Sc1ncnc2sc3c(c12)CCC3 (stereo not drawn),inactive
4,Cc1ccc(C(=O)NCc2ccc3c(c2)OCO3)c(Cl)c1,"inconclusive [activator, partial curve]"
5,Cn1cc(Br)c(C(=O)N/N=C/c2cccc(OC3CSC3)c2)n1,"inconclusive [activator, full curve, poor fit]"
6,CCCCSCCCNC(=O)CS(=O)Cc1nc(-c2cccc(C)c2)oc1C (stereo not drawn),"inconclusive [activator, partial curve]"
7,O=C(c1ccc2ccccc2c1)N1CCN(S(=O)(=O)/C=C/c2ccccc2)CC1,"inconclusive [activator, single point]"
8,O=C(Nc1cccc(F)c1)C1CCN(C(=O)c2ccc(Br)cc2)CC1,"inconclusive [activator, single point]"
9,O=[N+]([O-])c1c(NCc2ccco2)ncnc1NCc1ccco1,"inconclusive [activator, single point]"
10,COc1ccc(NC(=S)Nc2cccc3ccccc23)cc1OC,"inconclusive [activator, single point]"
11,CCOC(=O)N/N=C/c1c(C)nn(-c2ccccc2Cl)c1Cl,"inconclusive [activator, partial curve]"
12,COc1cccc(CN(C)C(=O)C2CC(=O)N(c3ccc4c(c3)OCCO4)C2)c1 (stereo not drawn),"inconclusive [activator, partial curve]"
13,Cn1cncc1C#Cc1ccc2c(=O)c3ccccc3oc2c1,"inconclusive [activator, full curve]"
14,COc1ccc(N2CCOCC2)c(NC(=O)c2cccc3ccccc23)c1,"inconclusive [activator, single point]"
15,O=C1CSC2(C(=O)N(Cc3cccc(C(F)(F)F)c3)c3ccccc32)N1c1ccc(F)c(F)c1 (stereo not drawn),"inconclusive [activator, partial curve, poor fit]"
16,CC(=O)Nc1ccc(NC(=O)CSc2nnnn2-c2ccccc2F)cc1,inactive
17,Cc1cccc(C(=O)Nc2cccc3c2CCCC3)c1,"inconclusive [activator, full curve]"
18,Cc1nn(CCC(=O)NNC(=S)Nc2ccc([N+](=O)[O-])cc2)c(C)c1[N+](=O)[O-],"inconclusive [activator, partial curve]"
19,CCN(CC)S(=O)(=O)c1cc(C(=O)Nc2ccc(Cl)cn2)ccc1C,"inconclusive [activator, single point]"
20,Cn1cccc1CC(=O)NNC(=S)NC(=O)c1ccccc1Br,"inconclusive [activator, single point]"
21,CC(Oc1cccnc1[N+](=O)[O-])C(=O)Nc1ccc(F)cc1 (stereo not drawn),"inconclusive [activator, single point]"
22,O=C(Nc1ccccc1C(F)(F)F)c1ccc(F)c(S(=O)(=O)N2CCc3ccccc3C2)c1,"inconclusive [activator, partial curve]"
23,Cc1nnc(NC(=O)c2ccc(S(=O)(=O)N3CCc4ccccc4C3)cc2)o1,"inconclusive [activator, partial curve]"

row,SMILES,Potency
1,COC(=O)c1sccc1NC(=O)c1cccnc1,"inconclusive [activator, single point]"
2,Cc1ccc(C2/C(=C(/O)c3ccc(Cl)cc3)C(=O)C(=O)N2CC2CCCO2)o1 (stereo not drawn),inactive
3,COc1ccc(N2CCN(C(=O)CSc3ncccc3-c3nc4ccccc4[nH]3)CC2)cc1,inactive
4,N/C(Cc1cccc2ccccc12)=N\OC(=O)Cc1cccs1,"inconclusive [activator, partial curve]"
5,Cc1ccc(-c2ccc(=O)[nH]n2)cc1,"inconclusive [activator, single point]"
6,O=C(O/N=C(\c1ccccc1)c1ccccn1)c1ccc(Cl)c(Cl)c1,inactive
7,COc1cccc(N2C(=O)CN(Cc3ccccc3)C2=S)c1,"inconclusive [activator, partial curve]"
8,Cc1c(CCC(=O)N2CCC(C(=O)O)(c3ccccc3)CC2)c(=O)oc2cc3oc4c(c3cc12)CCCC4,"inconclusive [activator, partial curve]"
9,CCOC(=O)c1cnc2c(C(F)(F)F)cccc2c1N1CCOCC1,inactive
10,c1ccc2c(c1)[nH]c1c3ccccc3sc21,"inconclusive [activator, partial curve]"
11,COc1ccc(-c2cnc3c(c2)CCC3(C#N)C#N)cc1,"inconclusive [activator, single point]"
12,CCc1ccc(OCC(=O)N(Cc2ccc(C(C)C)cc2)C2CCS(=O)(=O)C2)cc1 (stereo not drawn),"inconclusive [activator, single point]"
13,CCCCOc1ccc(-c2nnn(C(C)(C)C(=O)OC)n2)cc1,"inconclusive [activator, partial curve]"
14,Cc1ccc(NC(=O)CN(C)S(=O)(=O)c2cccc3nsnc23)cc1Cl,"inconclusive [activator, single point]"
15,CC1(C)Oc2ccc3ccc(=O)oc3c2/C(=C/NNC(N)=S)C1=O,inactive
16,COc1cccc(C(=O)NC2CCCc3ccccc32)c1OC (stereo not drawn),"inconclusive [activator, single point]"
17,Cc1cc(C)cc(NC(=O)COc2cccc3c(=O)n(C)ccc23)c1,"inconclusive [activator, full curve, poor fit]"
18,C=CCS(=O)(=O)c1nc2ccccc2s1,active: 22.4 µM
19,O=C(O)C1CCN(c2ccc([N+](=O)[O-])cc2[N+](=O)[O-])CC1,inactive
20,N#Cc1ccsc1NC(=O)c1ccccn1,"inconclusive [activator, partial curve, poor fit]"
21,O=S1(=O)c2ccccc2N(Cc2ccccc2F)c2ccccc21,inactive
22,Cc1ccc(S(=O)(=O)ON2C(=O)c3ccccc3C2=O)c(C)c1,inactive
